The supplement of paper PMC8728848
This is one part of the list.

What was measured:
Experiment in all cases: glycan array binding signal (z-score within array); higher = stronger binding
Settings in all cases: glycan notation: IUPAC condensed, linker removed
[1] = target: Neu5Ac(a2-8)Neu5Ac
Procedure, shortened: (§1)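 From the Consortium for Functional Glycomics database, 3228 arrays were curated, keeping only those whose protein sequence was available. Binding is given as a within-array Z-score averaged across arrays sharing a protein sequence and across linkers. Negative Z-scores can be read as non-binding.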

[2] = target: Neu5Ac(a2-8)Neu5Ac(a2-3)Gal(b1-3)GalNAc(b1-4)[Neu5Ac(a2-3)]Gal(b1-4)Glc
Procedure, shortened: as §1

[3] = target: Neu5Ac(a2-8)Neu5Ac(a2-3)Gal(b1-3)GalNAc(b1-4)[Neu5Ac(a2-8)Neu5Ac(a2-3)]Gal(b1-4)Glc
Procedure, shortened: as §1

[4] = target: Neu5Ac(a2-8)Neu5Ac(a2-3)Gal(b1-4)Glc
Procedure, shortened: as §1

[5] = target: Neu5Ac(a2-8)Neu5Ac(a2-3)Gal(b1-4)GlcNAc
Procedure, shortened: as §1

[6] = target: Neu5Ac(a2-8)Neu5Ac(a2-3)[Gal(b1-3)GalNAc(b1-4)]Gal(b1-4)Glc
Procedure, shortened: as §1

[7] = target: Neu5Ac(a2-8)Neu5Ac(a2-3)[GalNAc(b1-4)]Gal(b1-4)Glc
Procedure, shortened: as §1

[8] = target: Neu5Ac(a2-8)Neu5Ac(a2-8)Neu5Ac
Procedure, shortened: as §1

[9] = target: Neu5Ac(a2-8)Neu5Ac(a2-8)Neu5Ac(a2-3)Gal(b1-4)Glc
Procedure, shortened: as §1

[10] = target: Neu5Ac(a2-8)Neu5Ac(a2-8)Neu5Ac(a2-3)[Gal(b1-3)GalNAc(b1-4)]Gal(b1-4)Glc
Procedure, shortened: as §1

[11] = target: Neu5Ac(a2-8)Neu5Ac(a2-8)Neu5Ac(a2-3)[GalNAc(b1-4)]Gal(b1-4)Glc
Procedure, shortened: as §1

[12] = target: Neu5Ac(a2-8)Neu5Ac(a2-8)Neu5Ac(a2-8)Neu5Ac(a2-3)[GalNAc(b1-4)]Gal(b1-4)Glc
Procedure, shortened: as §1

[13] = target: Neu5Ac(a2-8)Neu5Gc(a2-3)Gal(b1-4)GlcNAc
Procedure, shortened: as §1

[14] = target: Neu5Ac(b2-6)Gal(b1-4)GlcNAc
Procedure, shortened: as §1

[15] = target: Neu5Ac(b2-6)GalNAc
Procedure, shortened: as §1

[16] = target: Neu5Ac9Ac(a2-3)Gal(b1-3)GlcNAc
Procedure, shortened: as §1

[17] = target: Neu5Ac9Ac(a2-3)Gal(b1-4)GlcNAc
Procedure, shortened: as §1

[18] = target: Neu5Ac9Ac(a2-6)Gal(b1-4)GlcNAc
Procedure, shortened: as §1

[19] = target: Neu5Gc(a2-3)Gal(b1-3)GlcNAc
Procedure, shortened: as §1

[20] = target: Neu5Gc(a2-3)Gal(b1-3)[Fuc(a1-4)]GlcNAc
Procedure, shortened: as §1

[21] = target: Neu5Gc(a2-3)Gal(b1-4)Glc
Procedure, shortened: as §1

[22] = target: Neu5Gc(a2-3)Gal(b1-4)GlcNAc
Procedure, shortened: as §1

[23] = target: Neu5Gc(a2-3)Gal(b1-4)GlcNAc(b1-3)Gal(b1-4)GlcNAc(b1-2)Man(a1-3)[Neu5Gc(a2-3)Gal(b1-4)GlcNAc(b1-3)Gal(b1-4)GlcNAc(b1-2)Man(a1-6)]Man(b1-4)GlcNAc(b1-4)GlcNAc
Procedure, shortened: as §1

[24] = target: Neu5Gc(a2-3)Gal(b1-4)[Fuc(a1-3)]GlcNAc
Procedure, shortened: as §1

[25] = target: Neu5Gc(a2-6)Gal(b1-4)GlcNAc
Procedure, shortened: as §1

[26] = target: Neu5Gc(a2-6)GalNAc
Procedure, shortened: as §1

[27] = target: Neu5Gc(a2-8)Neu5Ac(a2-3)Gal(b1-4)GlcNAc
Procedure, shortened: as §1

[28] = target: Neu5Gc(a2-8)Neu5Gc(a2-3)Gal(b1-4)GlcNAc
Procedure, shortened: as §1

[29] = target: Neu5Gc(a2-8)Neu5Gc(a2-3)Gal(b1-4)GlcNAc(b1-3)Gal(b1-4)GlcNAc
Procedure, shortened: as §1

[30] = target: Neu5Gc(a2-8)Neu5Gc(a2-6)Gal(b1-4)GlcNAc
Procedure, shortened: as §1

[31] = target: Neu5Gc(b2-6)Gal(b1-4)GlcNAc
Procedure, shortened: as §1

B1: EULS2 M4 (Oryza sativa) (protein)
chain: MVYCRANPNYAMTARNGAVVLAPANPKDEYQHWIKDMRWSTSIKDEEGYPAFALVNKATGQAIKHSLGQSHPVRLVPYNPEVMDESVLWTESRDVGNGFRCIRMVNNIYLNFDAFHGDKYHGGVRDGTDIVLWKWCEGDSLRWKIQPYYILEQKLISEEDLNSAVDHHHHHH
- glycan array binding signal (z-score) [1]: -0.509
- glycan array binding signal (z-score) [2]: -0.429
- glycan array binding signal (z-score) [3]: 1.2
- glycan array binding signal (z-score) [4]: 1.06
- glycan array binding signal (z-score) [5]: -0.156
- glycan array binding signal (z-score) [6]: -0.446
- glycan array binding signal (z-score) [7]: -0.64
- glycan array binding signal (z-score) [8]: -0.325
- glycan array binding signal (z-score) [9]: -0.514
- glycan array binding signal (z-score) [10]: -0.536
- glycan array binding signal (z-score) [11]: -0.825
- glycan array binding signal (z-score) [12]: -0.453
- glycan array binding signal (z-score) [13]: -0.286
- glycan array binding signal (z-score) [14]: -0.372
- glycan array binding signal (z-score) [15]: 0.656
- glycan array binding signal (z-score) [16]: -0.05
- glycan array binding signal (z-score) [17]: 1.11
- glycan array binding signal (z-score) [18]: -0.532
- glycan array binding signal (z-score) [19]: -0.111
- glycan array binding signal (z-score) [20]: -0.495
- glycan array binding signal (z-score) [21]: 2.09
- glycan array binding signal (z-score) [22]: -0.415
- glycan array binding signal (z-score) [23]: -0.344
- glycan array binding signal (z-score) [24]: 0.599
- glycan array binding signal (z-score) [25]: 2.07
- glycan array binding signal (z-score) [26]: -0.203
- glycan array binding signal (z-score) [27]: -0.626
- glycan array binding signal (z-score) [28]: -0.413
- glycan array binding signal (z-score) [29]: -0.269
- glycan array binding signal (z-score) [30]: -0.446
- glycan array binding signal (z-score) [31]: -0.504
